Laboratory results reported in article PMC4336329 (PLoS ONE, 2015).
Hit rate of the full screen: of about 310,000 compounds, about 14,000 (4.5%) showed an effect of 50% or more. The effect is printed as a negative number. The list shows a part of the results.

target: human ether-à-go-go-related gene (hERG) potassium channel (human, UniProt Q12809); test: primary screen, population patch clamp on CHO cells stably expressing hERG
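Note: peak tail current of the secondary pulse compared with the same well before compound.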

human ether-à-go-go-related gene (hERG) potassium channel, sequence (Q12809 whole entry, looked up): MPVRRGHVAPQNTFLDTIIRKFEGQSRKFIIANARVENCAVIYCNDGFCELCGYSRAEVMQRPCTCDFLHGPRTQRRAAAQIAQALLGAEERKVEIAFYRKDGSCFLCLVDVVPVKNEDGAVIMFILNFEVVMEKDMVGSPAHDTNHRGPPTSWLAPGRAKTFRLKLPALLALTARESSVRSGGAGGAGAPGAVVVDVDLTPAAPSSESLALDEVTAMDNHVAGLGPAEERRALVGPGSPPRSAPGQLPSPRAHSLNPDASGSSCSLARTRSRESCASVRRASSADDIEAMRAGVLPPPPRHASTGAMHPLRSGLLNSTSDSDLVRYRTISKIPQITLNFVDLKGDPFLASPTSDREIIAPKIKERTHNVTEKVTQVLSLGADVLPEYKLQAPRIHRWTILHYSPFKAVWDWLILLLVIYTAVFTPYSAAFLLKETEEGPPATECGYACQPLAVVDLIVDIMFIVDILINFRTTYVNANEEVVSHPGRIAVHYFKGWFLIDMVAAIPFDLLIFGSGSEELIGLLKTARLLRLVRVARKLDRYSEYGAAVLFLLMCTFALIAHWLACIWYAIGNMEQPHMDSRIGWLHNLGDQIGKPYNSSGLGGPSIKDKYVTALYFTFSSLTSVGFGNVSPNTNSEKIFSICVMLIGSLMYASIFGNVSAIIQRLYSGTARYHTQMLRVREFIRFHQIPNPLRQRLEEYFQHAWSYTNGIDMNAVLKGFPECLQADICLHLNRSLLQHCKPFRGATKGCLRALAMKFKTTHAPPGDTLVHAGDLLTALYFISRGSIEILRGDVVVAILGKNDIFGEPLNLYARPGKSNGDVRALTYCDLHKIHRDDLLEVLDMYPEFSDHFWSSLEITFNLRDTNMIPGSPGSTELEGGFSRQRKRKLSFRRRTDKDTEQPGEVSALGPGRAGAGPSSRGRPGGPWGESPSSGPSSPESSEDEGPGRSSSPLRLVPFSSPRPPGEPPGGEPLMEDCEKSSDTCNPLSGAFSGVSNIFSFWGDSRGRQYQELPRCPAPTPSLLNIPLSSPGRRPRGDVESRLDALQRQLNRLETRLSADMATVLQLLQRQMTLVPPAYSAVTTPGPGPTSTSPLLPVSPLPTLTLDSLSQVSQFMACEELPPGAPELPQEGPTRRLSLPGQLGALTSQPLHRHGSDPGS

Compound | hERG current change (%, negative = inhibition) at 10uM [%]
COc1ccc(-c2cc(C(F)F)n3ncc(C(=O)N4CCc5ccccc5C4)c3n2)cc1 | -8.97
O=C(NCCO)c1cc2c(s1)CCC2 | 3.07
Cc1ccc(N2CC(C(=O)N3CCc4ccccc4C3)CC2=O)cc1 (centres unmarked) | -44.5
COc1ccc(CN2C(=O)CS(=O)CC2=O)cc1OC | 13.8
COc1cc(CC(=O)OCC(=O)N2CC(=O)Nc3ccccc32)cc(OC)c1OC | 8.28
Cc1ccc2c(SCC(=O)NCc3ccco3)nc(-c3ccc(F)cc3)nc2c1 | -13.2
CCC(Sc1nncn1C)C(=O)Nc1nnc(-c2ccccc2Cl)s1 (centres unmarked) | -11
O=C(CC1CCCC1)NCCc1cn2ccccc2n1 | 1.81
CCOC(=O)[C@H]1[C@H]2COc3cc(OC)ccc3[C@@H]2N2C(=O)c3cc(OC)c(OC)cc3NC(=O)[C@@]12C | -2.44
OC(COc1ccc(Cl)cc1Cl)Cn1ccnc1 (centres unmarked) | 9.67
CC(=O)c1ccc(OC(=O)C(CCS(C)(=O)=O)N2C(=O)c3ccccc3C2=O)cc1 (centres unmarked) | -0.543
OCCOc1ccc(CN2CCCC(N3CCN(c4ccc(F)cc4)CC3)C2)cc1 (centres unmarked) | -69.8
CC(=O)c1c(C)n(CCCOC(C)C)c2ccc(O)cc12 | -30.4
COc1c(C)oc2cc(O)ccc2c1=O | 10.9
CCCN(c1ccc(C)cc1)c1nc(=O)c2cccnc2s1 | -28
O=C(C1Cc2ccccc2CN1S(=O)(=O)c1ccc(F)cc1)N1CCCCCC1 (centres unmarked) | -12.2
O=C(CSc1nc2ccc(S(=O)(=O)N3CCOCC3)cc2[nH]1)N1CCOCC1 | 14.7
Cc1ccccc1S(=O)(=O)c1cc2ccccc2nc1N | 7.84
CCOc1ccccc1NC(=O)CN(c1ccc(C)cc1)S(=O)(=O)c1c(C)n[nH]c1C | 6.72

Compound | hERG current change (%, negative = inhibition) at 10uM [%]
CN(C)CCN(C(=O)CCc1ccccc1)c1nc2c(F)cc(F)cc2s1.Cl | -33.4
CC1(C(=O)N(CC(=O)NC2CCCC2)C2CCCC2)CC(=O)N=C2C=CC=CN21 (centres unmarked) | 22.5
O=c1c2ccccc2ncn1-c1cccc(Cl)c1 | 3.93
Cc1cc(S(=O)(=O)N2CCOCC2)ccc1OCC(=O)Nc1ccc(Br)cc1F | 12.7
CCCCn1c(SCC(N)=O)nc2c(sc3ccccc32)c1=O | -12.4
CC(=O)NC(CC(=O)NC(C)c1ccc(Cl)cc1Cl)c1ccccc1 (centres unmarked) | -11.6
CCc1ccc(OCC(=O)Nc2cccc3c2CCCC3)cc1 | 6.68
CCOC(=O)CNC(=O)C(=O)c1c(O)[nH]c2ccccc12 | 9.92
CCOC(=O)c1c(C)[nH]c(=S)c(C#N)c1-c1ccc(OC)cc1 | 12.5
Cc1ccc(NC(=O)CCCc2ccccc2)c([N+](=O)[O-])c1 | 9.84
Cc1cc(N2CCOCC2)ncc1[N+](=O)[O-] | -4.31
CC(=O)NS(=O)(=O)c1ccc(NC(=O)CC(C)c2ccccc2)cc1 (centres unmarked) | 11.8
Cc1cc(Nc2ccccc2)c2c([N+](=O)[O-])c(C)cc(C)c2n1 | -5.28
COc1ccc(NC(=O)Cc2ccccc2F)cc1S(=O)(=O)N1CCCCC1 | -0.328
Nc1ccccc1SCc1cn2cccnc2n1 | -11.3
CCN(CC)CCNc1nc(-c2ccccc2)c2c(c1C#N)CC(C)(C)OC2 | -66.4
Cc1cc(=O)n2[nH]c(=O)c(N=Nc3ccccc3)c2[nH]1 | 12.9
COc1cc(OC)c(OC)cc1/C=N/Nc1ncnc2c1[nH]c1ccccc12 | -10.7
Cc1cccc(NC(=O)[C@@H](NC(=O)[C@@H]2Cc3ccccc3CN2)C(C)C)c1 | -62.4

Compound | hERG current change (%, negative = inhibition) at 10uM [%]
CCOc1cc(CNCC2CCCO2)cc(Br)c1OCC(N)=O.Cl (centres unmarked) | -3.59
COc1ccc(CNC(=O)CCC(=O)N2CC(C)Oc3ccccc32)cc1 (centres unmarked) | -25.4
CC(=O)Nc1ccc(S(=O)(=O)N2CCCC(C(=O)N3CCN(c4ccccc4)CC3)C2)cc1 (centres unmarked) | -50.9
COc1ccc(N2CCN(CC(O)COc3c(OC)cccc3OC)CC2)cc1.Cl (centres unmarked) | -35.3
O=C(CCSc1ccc(Cl)cc1)NC12CC3CC(CC(C3)C1)C2 | 26
COc1cccc(OC)c1C(=O)Nc1cccnc1 | -5.88
CCN(CC)S(=O)(=O)c1ccc(C)c(NC(=O)Cn2cnc3cc([N+](=O)[O-])ccc3c2=O)c1 | -55.7
COCCN1C(=O)N[C@@H](c2cccc(C(F)(F)F)c2)C(C(=O)OC)=C1C | 12.7
Cc1c(C#N)c(=O)oc2ccc3ccccc3c12 | 9.93
Cc1csc(NC(=O)c2ccco2)c1C(=O)c1ccccc1 | 10.2
C#CCOc1ccc(Br)cc1/C=N/O | 0.729
COc1cc(-c2nnc(Sc3ccc(C(F)(F)F)cc3[N+](=O)[O-])o2)cc(OC)c1OC | 3.03
O=C(COc1cccnc1[N+](=O)[O-])Nc1ccc2c(c1)OC(F)(F)O2 | -11.2
Cc1ccc(S(=O)(=O)N2CCCCC2)cc1NC(=O)CSc1nccn1C | -9.3
CCOC(=O)C1CCN(C(=O)CNC(=O)OC(C)(C)C)CC1 | 5.68
COc1ccc(S(=O)(=O)N2CCc3ccccc32)cc1C(=O)N1CCN(C=O)CC1 | -2.51
O=c1c2cc(Br)ccc2[nH]c(=S)n1Cc1ccccc1 | 17.8
COc1ccc(OC)c(N(CC(=O)N2CCCCC2)S(=O)(=O)c2ccc(OC)c(OC)c2)c1 | 10.6
